{"source": "PubChem BioAssay AID1346428", "about": "(National Center for Advancing Translational Sciences (NCATS), 2018)", "note": "Out of some 48,000 compounds screened, about 1,200 (2.5%) were called active. Not shown: some 2% with an inconclusive outcome.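 Rule for the calls: active = activation of at least 60% and not above a set upper limit (about 1 call in 100 departs from these limits); inconclusive = activation of 40% to 60%, or above that upper limit; inactive = activation under 40%.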 The list shows a part of the results."}
{"target": "Probable G-protein coupled receptor 32 (Homo sapiens) (UniProt O75388)", "sequence (O75388 whole entry, looked up)": "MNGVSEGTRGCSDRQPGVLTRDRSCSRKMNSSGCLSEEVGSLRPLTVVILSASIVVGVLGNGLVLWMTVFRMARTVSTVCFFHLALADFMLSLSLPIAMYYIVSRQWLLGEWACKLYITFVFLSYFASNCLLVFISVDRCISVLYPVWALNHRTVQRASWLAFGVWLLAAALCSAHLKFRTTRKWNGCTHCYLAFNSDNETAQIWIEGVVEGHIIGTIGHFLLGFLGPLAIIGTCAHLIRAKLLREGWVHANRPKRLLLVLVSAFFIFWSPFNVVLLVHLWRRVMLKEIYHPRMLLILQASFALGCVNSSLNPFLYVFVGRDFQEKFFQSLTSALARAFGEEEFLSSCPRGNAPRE", "test": "qHTS for Agonists of Human Resolvin D1 Receptor DRV1; note: 0% is about no effect", "conditions": "CHO-K1 GPR32 beta-arrestin PathHunter luminescence, 90 min; at 76.9 µM; stronger effect = higher value; zero percent set by DMSO-only wells", "summary_of_the_method": "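Step 1: seed CHO-K1 GPR32 beta-arrestin cells, 2,500/well, overnight at 37 °C. Step 2: add compounds, 90 min at 37 °C. Step 3: detection reagent, 1 h ambient, then luminescence.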"}
{"smiles": "COc1cccc(C(=O)Nc2nnc(S(=O)(=O)N3CCOCC3)s2)c1", "activation": "active: 69.6%"}
{"smiles": "COc1cc(OC)cc(C(=O)Nc2ccc3nc(N4CCC(C)CC4)cc(C)c3c2)c1", "activation": "inactive: -2.54%"}
{"smiles": "CCC12CN3CC(CC)(CN(C1)C3c1ccc(OCc3ccccc3)cc1)C2=O", "note": "(centres undefined)", "activation": "inactive: 4.36%"}
{"smiles": "Cc1cc(C)c2c(=O)cc(C(=O)Nc3ccccc3Cl)oc2c1", "activation": "inactive: 1.54%"}
{"smiles": "Cc1ccc2c(CC(=O)Nc3cc(C(F)(F)F)ccc3Cl)coc2c1C", "activation": "inactive: -5.64%"}
{"smiles": "Cc1ccc2oc(=O)n(CCNC(=O)Nc3ccccc3Cl)c2c1", "activation": "inactive: -6.47%"}
{"smiles": "COc1ccc(C2CC(=O)Nc3c2c(=O)nc2c(C)cccn32)cc1", "note": "(centres undefined)", "activation": "inactive: 10.6%"}
{"smiles": "CCOC(=O)c1c(C)[nH]c(C)c1S(=O)(=O)N1CCC(C(=O)Nc2ccccn2)CC1", "activation": "inactive: 2.24%"}
{"smiles": "O=S(=O)(O)NC1CCCCC1", "activation": "inactive: -0.109%"}
{"smiles": "CC(C)c1ccc(NS(=O)(=O)c2ccc3[nH]c(=O)ccc3c2)cc1", "activation": "inactive: 6.29%"}
{"smiles": "COC(=O)c1ccc(Cn2nc(-c3ccc(C)c(C)c3)ccc2=O)cc1", "activation": "inactive: -16.8%"}
{"smiles": "CCc1ccc(NC(=O)C2CCCN(S(=O)(=O)c3c(C)[nH]c(=O)[nH]c3=O)C2)cc1", "note": "(centres undefined)", "activation": "inactive: 6.39%"}
{"smiles": "CC(C)c1ccc(NC(=O)C2CCCN(S(=O)(=O)c3cccc4nonc34)C2)cc1", "note": "(centres undefined)", "activation": "inactive: 17%"}
{"smiles": "O=C(Nc1noc2ccccc12)c1cccc(F)c1", "activation": "inactive: -15.9%"}
{"smiles": "COc1ccc(Cl)cc1Nc1ncnc2c1nc1n2CCCC1", "activation": "inactive: -10.5%"}
{"smiles": "O=C(CCS(=O)(=O)c1cc2c3c(c1)CCN3C(=O)CC2)NCc1ccc(F)cc1", "activation": "inactive: -8.97%"}
{"smiles": "COCCc1nn2c(=O)cc(COC(=O)COc3ccccc3C)nc2s1", "activation": "inactive: -0.983%"}
{"smiles": "CCC(=O)Nc1ccc2nc(SCC(=O)N3CCc4ccccc43)sc2c1", "activation": "inactive: -7.22%"}
{"smiles": "CCOC(=O)c1ccccc1NC1(c2ccc(OC)cc2)C(=O)c2ccccc2C1=O", "activation": "inactive: -14.5%"}
{"smiles": "O=c1c2ccccc2n2c(-c3ccc(F)c(F)c3)nnc2n1CCc1ccccc1", "activation": "inactive: -4.69%"}
{"smiles": "Cc1cc(C)c(NC(=O)CSc2nnc3[nH]c(=O)cc(C)n23)c(C)c1", "activation": "inactive: 5.11%"}
{"smiles": "COC(=O)c1ccc(C2c3c(oc4cc(C)c(C)cc4c3=O)C(=O)N2c2ccccn2)cc1", "note": "(centres undefined)", "activation": "inactive: 1.93%"}
{"smiles": "CCOC(=O)c1c(S(=O)(=O)N2CCCC(C(=O)Nc3ccc(C)cc3C)C2)c(C)n(CC)c1C", "note": "(centres undefined)", "activation": "inactive: 9.58%"}
{"smiles": "CCOC(=O)C1CCN(C(=O)CSc2c3c(nc4ccc(Cl)cc24)CCCC3)CC1", "activation": "inactive: -13.5%"}
{"smiles": "CC(=O)Nc1ccc(C(=O)CSc2nnc3cc(C)c4ccccc4n23)cc1", "activation": "inactive: 6.1%"}
{"smiles": "Cc1cc(C)c(NC(=O)Cn2c(=O)n(CCC(=O)NCc3ccc4c(c3)OCO4)c(=O)c3ccccc32)c(C)c1", "activation": "inactive: 13.5%"}
{"smiles": "CCOc1ccc(S(=O)(=O)Nc2ccc3c(c2)c(C(C)=O)c(C)n3S(=O)(=O)c2ccc(OCC)cc2)cc1", "activation": "inactive: -10.8%"}
{"smiles": "Cc1ccc(CNC(=O)c2ccc(-c3nc(CN4CCc5ccccc54)c(C)o3)cc2)cc1", "activation": "inactive: -0.238%"}
{"smiles": "CCCCNC(=O)c1ccc2c(=O)n(-c3ccccc3)c(=O)[nH]c2c1", "activation": "inactive: 9.96%"}
{"smiles": "O=C(NCc1ccc(Cl)cc1)C(=O)NCC(c1ccco1)S(=O)(=O)c1cccs1", "note": "(centres undefined)", "activation": "inactive: -14.5%"}
{"smiles": "Cc1ccc(NC(=O)c2sc3nc(-c4ccc(F)cc4)cn3c2C)c(C)c1", "activation": "inactive: -12.9%"}
{"smiles": "COc1ccc(CCC(=O)NC2CC(=O)N(c3ccc(C)c(C)c3)C2)cc1", "note": "(centres undefined)", "activation": "inactive: -11.8%"}
{"smiles": "N#Cc1ccccc1Cn1nnc2c(=O)[nH]c(C3CCCN(S(=O)(=O)c4ccc(F)cc4)C3)nc21", "note": "(centres undefined)", "activation": "inactive: -2%"}
{"smiles": "O=C(Nc1nc2nc(-c3ccccc3)cc(=O)n2[nH]1)c1ccc(F)cc1", "activation": "inactive: 13.3%"}
{"smiles": "CCc1ccccc1N1CC(c2nc3ccccc3n2Cc2cccc(C)c2)CC1=O", "note": "(centres undefined)", "activation": "inactive: 35.9%"}
{"smiles": "O=C(Nc1sc2c(c1C(=O)NCc1ccccc1)CCCC2)c1cc(=O)c2cc(Cl)ccc2o1", "activation": "inactive: 2.22%"}
{"smiles": "COc1cccc(CNC(=O)Cn2ccc3cc(S(=O)(=O)N4CCCC4)ccc32)c1", "activation": "inactive: 8.08%"}
{"smiles": "CCOc1ccc(S(=O)(=O)NCCc2sc(-c3ccc(C)cc3)nc2C)cc1", "activation": "inactive: 7.75%"}
{"smiles": "CC1CCc2nn(CC(=O)Nc3cccc(C(F)(F)F)c3)c(=O)cc2C1", "note": "(centres undefined)", "activation": "inactive: -5.45%"}
{"smiles": "COc1cc(NC(=O)Cn2c(=O)n(C(C)C)c(=O)c3oc4ccccc4c32)cc(OC)c1", "activation": "inactive: -12.7%"}
{"smiles": "O=C(NCc1ccccc1)C1CCC(CNS(=O)(=O)c2ccc(Br)s2)CC1", "note": "(centres undefined)", "activation": "inactive: 35.8%"}
{"smiles": "O=C(Nc1cccnc1Cl)c1cc(-c2ccc(Cl)cc2)on1", "activation": "inactive: -1.7%"}
{"smiles": "CC1CCN(S(=O)(=O)c2cc(C(=O)NCc3ccc(F)cc3)n(C)c2)CC1", "activation": "inactive: 22.2%"}
{"smiles": "COc1cccc(COC(=O)c2ccc(-c3nnn(Cc4ccccc4)n3)cc2)c1", "activation": "inactive: -10.5%"}
{"smiles": "Cc1ccccc1C(=O)Nc1nnc(SCc2cc(=O)c3c(C)ccc(C)c3[nH]2)s1", "activation": "inactive: 14.4%"}
{"smiles": "CC(C)c1ccc(C(=O)Nc2cccc3cccnc23)cc1", "activation": "inactive: 20.5%"}
{"smiles": "COc1ccc(CN(C(=O)Nc2ccc(C)c(F)c2)C2CCN(C(C)=O)CC2)cc1", "activation": "inactive: -11.6%"}
{"smiles": "O=C1C(c2ccc(F)cc2)N(CCc2ccccc2)C(=O)CN1C1CCCCC1", "note": "(centres undefined)", "activation": "inactive: 15%"}
{"smiles": "CNC(=O)c1cc2n(n1)CCCN(Cc1ccc(F)cc1)C2=O", "activation": "inactive: 6.53%"}
{"smiles": "CSc1ccc(CCNC(=O)c2cc3n(n2)CCCN(Cc2ccc(C)cc2)C3=O)cc1", "activation": "inactive: 12.9%"}
{"smiles": "CC(=O)c1ccc(NC(=O)CCc2c(C)nn(-c3ccc4nncn4n3)c2C)cc1", "activation": "inactive: 0.584%"}
{"smiles": "CCOc1ccc(CCNS(=O)(=O)c2c(C)nc3sc(C)cn3c2=O)cc1OCC", "activation": "inactive: -37.1%"}
{"smiles": "Cc1ccc(NC(=O)CCS(=O)(=O)c2ccc3nc(C)sc3c2)cc1", "activation": "inactive: 17.2%"}
{"smiles": "CCC1CN(C(=O)N2CCC(C(=O)NCCOC)CC2)c2ccccc2O1", "note": "(centres undefined)", "activation": "inactive: -14%"}
{"smiles": "Cc1ccc(CNC(=O)c2nc(SCc3cccc(C)c3)ncc2Cl)cc1", "activation": "inactive: 8.97%"}
{"smiles": "Cc1ccc(CNC(=O)c2cn(C)c3ccc(S(=O)(=O)N(C)C4CCCCC4)cc3c2=O)cc1", "activation": "inactive: -11.8%"}
{"smiles": "CCc1ccc(-n2nc3ccc(NC(=O)c4cc5ccccc5o4)cc3n2)cc1", "activation": "inactive: -0.3%"}
{"smiles": "CCOc1ccc(-c2cc3c(=O)n(Cc4nc(-c5cccc(OC)c5OC)oc4C)ccn3n2)cc1Cl", "activation": "inactive: -3.26%"}
{"smiles": "CCC(=O)N1CCc2cc(S(=O)(=O)CCC(=O)N3CCN(c4cccc(C)c4)C(C)C3)ccc21", "note": "(centres undefined)", "activation": "active: 66%"}
{"smiles": "CCN(Cc1ccc(OC)cc1)c1ccc(-c2nc(-c3ccncc3)no2)cc1[N+](=O)[O-]", "activation": "inactive: -4.18%"}
{"smiles": "COc1ccc(OC)c(S(=O)(=O)N2Cc3ccccc3CC2C(=O)Nc2ccc(C(C)=O)cc2)c1", "note": "(centres undefined)", "activation": "inactive: -17.2%"}
{"smiles": "O=C(NCCc1ccccc1)c1ccc(Cn2c(SCc3ccc(F)cc3)nc3cccnc32)cc1", "activation": "inactive: -16.3%"}
{"smiles": "Cc1ccccc1Nc1c(-c2ccsc2)nc2c(C)cccn12", "activation": "inactive: -19.8%"}
{"smiles": "O=C(NCc1cccc(Cl)c1)c1cccn1-c1nnc(N2CCCC2)s1", "activation": "inactive: -12.4%"}
{"smiles": "Cc1cc(C)c(Cn2c3ccccc3c3cnn(CC(=O)NCCCc4ccccc4)c(=O)c32)c(C)c1", "activation": "inactive: -27.6%"}
{"smiles": "Cc1ccc(CN(Cc2ccco2)c2cnc(S(C)(=O)=O)nc2C(=O)Nc2ccc(Br)cc2)o1", "activation": "inactive: -20.3%"}
{"smiles": "COc1ccc(OC)c(CCNC(=O)CCn2c(=O)c3cccn3c3cccnc32)c1", "activation": "inactive: -15.3%"}
{"smiles": "CC(C)Cn1c(=O)c2ccccc2n2c(-c3ccc(Br)cc3)nnc12", "activation": "inactive: -2.07%"}
{"smiles": "CCCCN(c1ccccc1)c1ncnc2c1cnn2-c1ccc(Cl)cc1", "activation": "inactive: -14.4%"}
{"smiles": "Cc1ccc(-c2cn3cccc(C)c3n2)cc1NS(=O)(=O)c1ccccc1", "activation": "inactive: 45.3%"}
{"smiles": "Cc1ccccc1NC(=O)Cn1c(=O)n(Cc2ccc3c(c2)OCO3)c(=O)c2oc3ccccc3c21", "activation": "inactive: -12.4%"}
{"smiles": "Cc1cc(C)cc(C(=O)Nc2cc(C(F)(F)F)ccc2N2CCN(c3ccccc3)CC2)c1", "activation": "inactive: 1.87%"}
{"smiles": "O=C(c1ccccc1)N1CCc2cc(CNS(=O)(=O)c3ccccc3Cl)ccc21", "activation": "inactive: 0.17%"}
{"smiles": "CCOc1cc(C(=O)OCc2cc(=O)n3c(C)csc3n2)cc(OCC)c1OCC", "activation": "inactive: 0.928%"}
{"smiles": "CC(=O)Nc1ccc(S(=O)(=O)NCC2CCC(C(=O)NCCCOC(C)C)CC2)cc1", "note": "(centres undefined)", "activation": "inactive: -7.22%"}
{"smiles": "Cc1ccc(-c2nn3c(C)nnc3c3ccccc23)cc1S(=O)(=O)NCCO", "activation": "inactive: -5.63%"}
{"smiles": "Cc1cccc(N(CC(=O)NC(C)c2ccccc2)S(=O)(=O)c2ccccc2)c1C", "note": "(centres undefined)", "activation": "inactive: 1.05%"}
{"smiles": "CCCCc1nc(Cl)c(CO)n1Cc1ccc(-c2ccccc2-c2nn[nH]n2)cc1", "activation": "inactive: -51.2%"}
{"smiles": "O=C(NCC1(c2ccccc2)CCCC1)C(=O)Nc1cccc(C(F)(F)F)c1", "activation": "inactive: -0.501%"}
{"smiles": "COc1ccc2nc(NS(=O)(=O)c3ccc(C)cc3)c(Nc3cc(Cl)ccc3OC)nc2c1", "activation": "inactive: 42.1%"}
{"smiles": "CCOc1ccc(CCNC(=O)CSc2cc(=O)n(C)c3ccccc23)cc1OCC", "activation": "inactive: 10.1%"}
{"smiles": "CCCCC(CC)COC(=O)/C=C/c1ccc(OC)cc1", "note": "(centres undefined)", "activation": "inactive: 11.1%"}
{"smiles": "O=C1CC(c2ccccc2)Cc2[nH]c(=O)c(-c3nc(-c4cccc(Cl)c4)cs3)cc21", "note": "(centres undefined)", "activation": "inactive: -12.9%"}
{"smiles": "COc1ccc(CNC(=O)C(=O)NCC(c2ccc3c(c2)OCO3)N2CCOCC2)cc1", "note": "(centres undefined)", "activation": "inactive: -18.3%"}
